# The RNAGym collection of RNA variant scans (doi:10.7554/elife.90254)
# Read counts are not given, so values of variants with three or more changes are uncertain.
# B1: LINE1-full (parent)
# chain: UACGUAGGUGGUUUUCCCCUGAUAGUGCUAAGGGGGCCUGGAAGUUUGGACUGGGCAGAGCUCAACACAGCGUGGCAAAGUGGCUGUGGCUAGACUGCCUCUCUGGAUUCCUCGUCACUCAGCAGGGCAUCUCUGAGAGAAAUGCC
# Variants of: B1
# Assay: self-cleavage, relative activity (ratio to wild type); higher = more cleavage; in vitro, sequencing; the parent is a self-cleaving ribozyme
row,Variant,self-cleavage
1,UACGUAGGUGGUCUUCCCCUGAUAGUGCUAAGGGGGCCUGGAAGUUUGGACUGGGCAGAGCUCAACACAGCGUGGCAAAGUGGCUGUGGCUAGACUGCCUCUCUGGAUUCCUCGUCACUCAGCAGGGCAUCUCCAAGAGAAAUGCC [U13C U134C G135A],1.12
2,UACGUAGGUGGUCUUCCCCUGAUAGUGCUAAGGGGGCCUGGAAGUUUGGACUGGGCAGAGCUCAACACAGCGUGGCAAAGUGGCUGUGGCUAGACUGCCUCUCCGGAUUCCUCGUCACUCAGCAGGGCAUCUCUGAGAGAAACGCC [U13C U104C U143C],1.39
3,UACGUAGGUGGUCUUCCCCUGAUAGUGCUAAGGGGGCCUGGAAGUUUGGACUGGGCAGAGCUCAACACAGCGUGGCAAAGUGGCUGUGGCUAGACUGCCUCUCUGGAUUCCUCGUCACCCAGCAGGGCAUCUCUGCGAGAAAUGCC [U13C U119C A136C],2.98
4,UACGUAGGUGGUGUUCCCCUGACAGAGCUAAGGGGGCCUGGAAGUUUGGACUGGGCAGAGCUCAACACAGCGUGGCAAAGUGGCUGUGGCUAGACUACCUCUCUGGAUUCCUCGUCACUCAGCAGGGCUUCUCCGAGAGAAAUGCC [U13G U23C U26A G97A A129U U134C],0.19
5,UACGUAGGUGGUCUUCCCCUGAUAGUGCUAAGGGGGCCUGGAAGUUUGGACUGGGCAGAGCUCAACACAGCGUGGCAAAGUGGCUGUGGCUAGACUGCCUCUCUGGACCCCUCGUCACUCAGCAGGGCAUCUCUGAGAGAAAUGCC [U13C U108C U109C],1.19
6,UACGUAGGUGGUCUUCCCCUGAUAGUGCUAAGGGGGCCUGGAAGUUUGGACUGGGCAGAGCUCAACACAGCGUGGCAAAGUGGCUGUGGCUAGACUGCCUCCCUGGAUUCCUCGUCACUCAGCAGGGCAUCUCUGAGAGAAGUGCC [U13C U102C A142G],1.04
7,UACGUAGGUGGUCUUCCCCUGAUAGUGCUAAGGGGGCCUGGAAGUUUGGACUGGGCAGAGCUCAACACAGCGUGGCAAAGUGGCUGUGGCUAGACUGCCUCUCAGGAUUCCUUGUCACUCAGCAGGGCAUCUCUGUGAGAAAUACC [U13C U104A C113U A136U G144A],1.57
8,UACGUAGGUGGUGUUCCCCUGAUAGUGCUAAGUGGGCCUGGAAGUUUGGACUGGGCAGAGCUCAACACAGCGUGGCAAAGUGGCUGUGGCUAGACUGCCUCUCUAGAUUCCUCGUCACUCAGCAGGGCGUCUCUGAGGGAAAUGCC [U13G G33U G105A A129G A138G],1.11
9,UACGUAGGUGGUGUUCCCCUGAUAGAGCUAAGGGGGCCUGGAGGUUUGGACUGGGCAGAGCUCAACACAGCGUGGCAAAGUGGCUGUGGCUAGACUGCCUCUCUGGAUUCCUCGUCACUCAGCAGGGCAUCUCUGAGAGAAAUGCC [U13G U26A A43G],0.97
10,UACGUAGGUGGUGUUCCCCUGAUAGUGCUAAGGGGGCCUGGAAGUUUGGACUGGGCAGAGCUCAACACAGCGUGGCAAAGUGGCUGUGGCUAGACUGCCUCUCUGGAUUCCUCGUCACUCAGCAGGGCUUCUCUGAGAGUAAUGCC [U13G A129U A140U],1.1
11,UACGUAGGUGGUCUUCCCCUGAUAGUGCUAAGGGGGCCUGGAAGUUUGGACUGGGCAGAGCUCAACACAGCGUGGCAAAGUGGCUGUGGCUAGACUGCCUCUCUGGAUUCCUCGUCACCCAGCAGGGCAUCUCUGAGAGAGAUGCC [U13C U119C A141G],2.04
12,UACGUAGGUGGUCUUCCCCUGAUAGUGCUAAGGGGGCCUGGAAGUUUGGACUGGGCAGAGCUCAACACAGCGUGGCAAAGUGGCUGUGGCUAGACUGCCUCUCUGGAUUCCUCGUCACCCAGCAGGGCAUCUCUGAGAGAAACGCC [U13C U119C U143C],1.38
13,UACGUAGGUGGUGUUCCCCUGAUAGUGCUAAGGGGGCCUGGAAGUUCGGACUAGGCAGAGCUCAACACAGCGUGGCAAAGUGGCUGUGGCUAGACUGCCUCUCUGGAUUCCUCGUCACUCAGCAGGGCAUCACUGAGAGAAAUGCC [U13G U47C G53A U132A],0.84
14,UACGUAGGUGGUCUUCCCCUGAUAGUGCUAAGGGGGCCUGGAAGUUUGGACUGGGCAGAGCUCAACACAGCGUGGCAAAGUGGCUGUGGCUAGACUGCCUCUCUGGAUUCCUCGUCACACAGCAGGGCGUCUCUGAGAGAAAUGCC [U13C U119A A129G],0
15,UACGUAGGUGGUGUUCCCCUGAUAGUGCUAAGGGGGCCUGGGAGUUUGGACUGGGCAGAGCUCAACACAGCGUGGCAAAGUGGCCGUGGCUAGACUGCCUCUCAGGAUUCCUCGUCACUCAGCAGGGCAUCUCUGAGAGAAAUGCC [U13G A42G U85C U104A],0
16,UACGUAGGUGGUGUUCCCCUGAUAGUGCUAAGGGGGCCCGGAAGUUUGGACUGGGCAGAGCUCAACACAGCGUGGCAAAGUGGCUGUGGCUAGACUGCCUCUCUGGAUUCCUCGUCACUCAGCAGGGCAUCUCUGAGAGAGAUGCC [U13G U39C A141G],0
17,UACGUAGGUGGUCUUCCCCUGAUAGUGCUAAGGGGGCCUGGAAGUUUGGACUGGGCAGAGCUCAACACAGCGUGGCAAAGUGGCUGUGGCUAGACUGCCUCUCUGGAUUCCACGUCACUCAGCAGGGCAUCUCUGAGAGAAACGCC [U13C U112A U143C],1.08
18,UACGUAGGUGGUCUUCCCCUGAUAGUGCUAAGGGGGCCUGGAAGUUUGGACUGGGCAGAGCUCAACACAGCGUGGCAAAGUGGCUGUGGCUAGACUGCCUCUCUGGAUUCCUCGCCACUCAGCAGGGCGUCUCUGAGGGAAAUGCC [U13C U115C A129G A138G],1.97
19,UACGUAGGUGGUGUUCCCCUGAUAGUGCUAAGGGGGCCUGGAAGUUUGGACUGGGCAGAGCUCAACACAGCGUGGCAAAGUGGCUGUGGCUAGUCUGCCUCUCUGGAUUCCUCGUCACUCAGCAGGGCAUCACUGAGAGAAAUGCC [U13G A94U U132A],0.3
20,UACGUAGGUGGUGUUCCCCUGGUAGUGCUAAGGGGGCCUGGAAGUUUGGACUGGGGAGAGCUCAACACAGCGUGGCAUAGUGGCUGUGGCUAGACUGCCCCUCUGGAUUCCUCGUCACUCAGCAGGGCAUCUCUGAGAGAAAUACG [U13G A22G C56G A78U U100C G144A C146G],0.68
